# Source: PubChem BioAssay AID1347417 (National Center for Advancing Translational Sciences (NCATS), 2020)
# About 5,300 (4.4%) of roughly 120,000 compounds were called active. The inconclusive results got no clear call from the source; some entries with a clear call stand among them for comparison. Calls come from the whole dose curve; as a rule, active = well fitted inhibition curve with a large enough effect; inconclusive = small, poorly fitted or top-dose-only effect; inactive = no such curve, though single readings can be large or run the other way. Potencies of inconclusive entries are doubtful fits and often do not repeat.
# Assay: qHTS Primary assay for Inhibitors of Plasmodium falciparum Dd2 growth in vitro; note: nearly all actives have a fitted effect of over 65% in size
# Conditions: P. falciparum Dd2 growth, SYBR Green, 72 h; series mostly up to 28.9 µM
# How it was run: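 Readout: SYBR Green fluorescence, 485 nm excitation, 535 nm emission, after ~16 h lysis at 37C. Before that, Dd2-infected red cells (2.5% hematocrit) grew 72 h with compound, 29 uM top final concentration.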
# Potency is the fitted concentration of half-maximal effect; tags give direction and shape of the fitted curve.
row,Structure (SMILES),Potency
1,CCc1ccc(NS(=O)(=O)c2ccc3[nH]cc(C(=O)NC4CCCC4)c(=O)c3c2)cc1,"inconclusive: 17.8 µM [inhibitor, single point]"
2,CN1C(=O)C(CC(=O)N2CCC(N)CC2)(Cc2ccccc2)c2ccccc21 (stereo not drawn),inactive
3,CC(C)c1ccc(NC(=O)C2CCCN(S(=O)(=O)c3ccc(Br)s3)C2)cc1 (stereo not drawn),"inconclusive: 17.8 µM [inhibitor, single point]"
4,CCNC(=O)NC[C@H]1C[C@@H]2CCN1C[C@@H]2c1cc(-c2ccc(F)cc2)nn1C,"inconclusive: 7.08 µM [inhibitor, partial curve, poor fit]"
5,CC(C)CCNC(=O)C(=O)Nc1c2c(nn1-c1ccccc1)CS(=O)(=O)C2,inactive
6,COCCNC(=O)CSc1nc(-c2ccc(F)cc2)[nH]c1-c1ccc(Cl)cc1,"inconclusive: 17.8 µM [inhibitor, single point]"
7,CC(CNC(=O)Cn1ncc2c3ccccc3n(Cc3cccc(Cl)c3)c2c1=O)c1ccccc1 (stereo not drawn),"inconclusive: 5.01 µM [inhibitor, partial curve, poor fit]"
8,O=C1Nc2ccc(-c3ccc(Cl)cc3)cc2C(=O)N2CCN(C(=O)c3ccccc3)C[C@H]12,"inconclusive: 1 µM [inhibitor, full curve, poor fit]"
9,CCOc1ccc(C(=O)Nc2ccc(S(=O)(=O)N(Cc3ccccc3)c3ccccc3)cc2)cc1,active: 10 µM
10,COC(=O)c1ccc2c(c1)nc1n2[C@@H](CNC(=O)c2ccc(Cl)cc2)COC1,"inconclusive: 11.2 µM [inhibitor, partial curve, poor fit]"
11,C=CCN(C)C(=O)[C@@H]1Cc2c[nH]c3cccc(c23)[C@H](CC(C)C)N1,"inconclusive: 10 µM [inhibitor, partial curve]"
12,Cc1cc(N2CCCCC2)nc2ccc(NC(=O)c3ccc(F)cc3)cc12,inactive
13,CCc1ccccc1NC(=O)Cn1c(N(C)Cc2ccccc2)nc(C)cc1=O,inactive
14,O=C(NCCN1CCCCC1)c1cc2cn(C3CCCC3)cc2s1,inactive
15,Cc1nc(C(F)(F)F)nc(N2CCOC(c3ccc(F)cc3)C2)c1C (stereo not drawn),"inconclusive: 6.31 µM [inhibitor, partial curve, poor fit]"
16,Cc1noc(C)c1CCC(=O)NC1CCCc2c1[nH]c1ccccc21 (stereo not drawn),"inconclusive: 11.2 µM [inhibitor, single point]"
17,Cc1ccc(C2(C(=O)N3CCN(Cc4ccccc4)CC(O)C3)CC2)cc1 (stereo not drawn),"inconclusive: 11.2 µM [inhibitor, single point]"
18,COc1cccc(CN2CCC(Cc3ncc(C)n3CC3CC3)C2)c1OC (stereo not drawn),"inconclusive: 3.98 µM [inhibitor, partial curve, poor fit]"
19,O=C(COc1ccc(F)cc1)N1CCC2(CC1)NCCc1c2[nH]c2ccccc12,active: 10 µM
20,COCc1ncc(C)n1CCNC(=O)c1ccc(OC)nc1OC,inactive
21,O=C(Cc1ccc(Cl)cc1)N1CCC2(CC1)NC(=O)N(c1ccccc1Cl)N2,"inconclusive: 4.47 µM [inhibitor, partial curve, poor fit]"

row,Structure (SMILES),Potency
1,O=c1c2ccccc2n(Cc2cccc(Cl)c2)c(=O)n1CCc1ccccc1,"inconclusive: 17.8 µM [inhibitor, single point]"
2,O=C(Nc1ccc(-c2nnc3n2CCCC3)cc1)c1cnccn1,"inconclusive: 2 µM [inhibitor, partial curve, poor fit]"
3,Cc1cccc(CSc2cn(CC(=O)N3CCCCCC3)c3ccccc23)c1,"inconclusive: 17.8 µM [inhibitor, partial curve, poor fit]"
4,O=C(NCCc1ccccn1)C1c2ccccc2C(=O)N(C2CCCCC2)C12CCCCC2 (stereo not drawn),"inconclusive: 17.8 µM [inhibitor, single point]"
5,COc1ccc(CNC(=O)CN2C(=O)NC(c3ccc(Cl)cc3)C3=C2COC3=O)cc1 (stereo not drawn),"inconclusive: 10 µM [inhibitor, single point]"
6,CC1CCc2c(sc(NC(=O)c3ccccc3)c2C(=O)Nc2ccccc2)C1 (stereo not drawn),active: 12.6 µM
7,COCC1CN(S(=O)(=O)c2ccc3c(c2)CCCC3)CC12CCNCC2 (stereo not drawn),"inconclusive: 2 µM [inhibitor, single point]"
8,COc1cccc(NC(=O)C(=O)NCC(c2cccnc2)N2CCN(c3ccccc3)CC2)c1 (stereo not drawn),"inconclusive: 17.8 µM [inhibitor, single point]"
9,COc1ccc(CC(=O)NCc2cc(C)cc3c(C)c(C)[nH]c23)c(OC)c1,"inconclusive: 1.78 µM [inhibitor, full curve]"
10,COc1ccc(CN2CCCCCNC(=O)[C@@H]3CCC[C@@H]32)cc1Cn1ccnc1,active: 8.91 µM
11,COc1ccc(-c2nc(-c3ccccc3)nc3c2CN(C(=O)Cc2cccc(Cl)c2)CC3)cc1,"inconclusive: 11.2 µM [inhibitor, single point]"
12,CC1(C(=O)O)CCN(Cc2ccccc2)CC1,inactive
13,CN(Cc1cccn1C)S(C)(=O)=O,"inconclusive: 0.316 µM [inhibitor, full curve, poor fit]"
14,O=C(NCCc1ccco1)C1CC(=O)N(c2n[nH]c3cc(Br)ccc23)C1 (stereo not drawn),inactive
15,CCn1ccnc1CN1CCCC(CO)(Cc2cccc(Cl)c2)C1 (stereo not drawn),"inconclusive: 14.1 µM [inhibitor, partial curve, poor fit]"
16,CCN(CC)c1ccc(NC(=O)c2cnn3c(C(F)F)cc(-c4ccccc4)nc23)cc1,"inconclusive: 2.82 µM [inhibitor, partial curve]"
17,COc1ccc(Cl)cc1NC(=O)C1CCN(c2ncnc3c2nc2n3CCCCC2)CC1,"inconclusive: 7.94 µM [inhibitor, partial curve]"
18,CCCOc1ccc(-c2cccc(NS(=O)(=O)c3cc(OC)ccc3OC)c2)nn1,"inconclusive: 10 µM [inhibitor, single point]"
19,CN1CCN(CCNC(=O)c2ccc3c(c2)N(S(=O)(=O)c2ccccc2F)CC3)CC1,"inconclusive: 1.26 µM [inhibitor, full curve, poor fit]"
20,Cc1ccc2nc([C@H]3CCN(C(=O)c4ccccc4)C3)[nH]c2c1,"inconclusive: 31.6 µM [inhibitor, single point]"
21,COc1cccc(-c2cc(C(=O)N3CCc4c(c(-c5nncn5C)nn4C)C3)[nH]n2)c1,"inconclusive: 3.98 µM [inhibitor, single point]"

row,Structure (SMILES),Potency
1,CCCCN(C)CCNC(=O)C1CCN(c2nc3ccc(CC)cc3s2)CC1,active: 10 µM
2,Cc1noc(C)c1CC(=O)N1CCC2(CC1)CN([S+](C)(=O)[O-])Cc1ccccc1O2,inactive
3,CCCNC(=O)N1[C@H]2CC[C@@H]1c1cnc(-c3ccc(F)cc3)nc1C2,"inconclusive: 7.08 µM [inhibitor, single point]"
4,O=C(C[C@@H]1CCNC[C@@H]1Cc1cc(COc2ccccc2)on1)N1CCC(Cc2ccccc2)CC1,"inconclusive: 2.24 µM [inhibitor, partial curve, poor fit]"
5,COc1ccccc1CCC(=O)N1[C@@H]2CC[C@H]1CC(NC(=O)c1cnc(C)cn1)C2 (stereo partly drawn),inactive
6,COCC1CN(S(=O)(=O)c2ccc(C)c(F)c2)CC12CCNCC2 (stereo not drawn),"inconclusive: 3.55 µM [inhibitor, full curve, poor fit]"
7,CCC(CC)C(=O)N1CCc2cc(OC)c(OC)cc2C1COc1ccccc1OC (stereo not drawn),"inconclusive: 10 µM [inhibitor, single point]"
8,Cc1ccccc1OCc1nc(C2CN(C(=O)c3nccc4ccccc34)C2)no1,"inconclusive: 20 µM [inhibitor, single point]"
9,CCc1ccc(N2CC(c3noc(-c4nccc5ccccc45)n3)CC2=O)cc1 (stereo not drawn),"inconclusive: 1.58 µM [inhibitor, full curve, poor fit]"
10,CN1CCCC1c1nc(C2CN(C(=O)CCc3nc4ccccc4s3)C2)no1 (stereo not drawn),"inconclusive: 7.08 µM [inhibitor, partial curve, poor fit]"
11,O=C1CC2CCN(Cc3c(F)cccc3Cl)CC2CCN1 (stereo not drawn),inactive
12,CCn1cnnc1CC1CCCN(C(=O)Nc2cccc(C)c2)C1 (stereo not drawn),inactive
13,O=C(c1ccccc1Cl)N1CCC2(CC1)NC(=O)N(c1cccc(Cl)c1)N2,"inconclusive: 17.8 µM [inhibitor, single point]"
14,O=C(Cc1c[nH]c2ncc(-c3ccc(F)cc3)cc12)NCc1cccnc1,"inconclusive: 2.82 µM [inhibitor, single point]"
15,CC(=O)N1CCN(c2nc(-c3c(C)noc3C)cc3c2cc(-c2ccccc2)n3C)CC1,"inconclusive: 3.55 µM [inhibitor, partial curve, poor fit]"
16,O=C(NCc1nnc2cc(-c3nc(C4CC4)no3)ccn12)c1ccc(F)c(F)c1,inactive
17,Cc1ccc(Cn2c(=O)n(Cc3ccc(Cl)cc3)c(=O)c3cccnc32)cc1,"inconclusive: 17.8 µM [inhibitor, single point]"
18,Cc1ccc2nc(C(C)NC(=O)c3cnc(-c4ccccn4)[nH]c3=O)[nH]c2c1 (stereo not drawn),"inconclusive: 17.8 µM [inhibitor, single point]"
19,CCN(CC)c1cc(CCC(=O)N2CCN(c3ncccn3)CC2)ccn1,"inconclusive: 17.8 µM [inhibitor, single point]"
20,COc1ccc(-c2nn(C)c3sc(C(=O)N4CCN(c5cc(Cl)ccc5C)CC4)cc23)cc1OC,"inconclusive: 12.6 µM [inhibitor, single point]"
21,O=C(c1ccc2c(c1)N(Cc1cccc(Cl)c1)C(=O)c1ccccc1S2(=O)=O)N1CCN(c2cccc(C(F)(F)F)c2)CC1,"inconclusive: 11.2 µM [inhibitor, single point]"
